Laboratory results as given in PubChem BioAssay AID1963576 (National Center for Advancing Translational Sciences (NCATS), 2024).
The whole screen tested about 46,000 compounds, of which about 60 (0.1%) were called active. Roughly 3% stayed inconclusive and do not appear here. Calls follow the shape of the dose curve; as a rule, active = well fitted inhibition curve with a large enough effect; inconclusive = small, poorly fitted or top-dose-only effect; inactive = no such curve, though single readings can be large or run the other way. Some of the results follow.

Assay: Primary qHTS assay for Inhibitors of ovarian cancer metastasis using an organotypic tumor microenvironment (TME) model. Also: nearly all actives have a fitted effect of over 65% in size.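 As to activity change, negative = inhibition: plate controls were DMSO wells for no effect and tomatine positive control wells for full effect.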
Conditions: SKOV3ip1-GFP adhesion/invasion on 3D omental model, fluorescence; series mostly up to 45.8 µM; activity change, negative = inhibition: at the top concentration
Outline: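 Adhesion/invasion was scored as fixed GFP-labeled SKOV3ip1 cell counts (488/509 nm), normalized to DMSO and tomatine controls. Cancer cells in serum-free medium, with four compound doses (0.36-46 umol/L), sat 2 hr at RT then 16 hr at 37 C on a 48 hr fibroblast/mesothelial/ECM culture.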

outcome, inactive:
Cc1cccc(NC(=O)c2cc(S(=O)(=O)NCc3ccc4c(c3)OCO4)ccc2F)c1C, CCOC(=O)Cn1c(=O)n(CC2CCCO2)c2nc(-c3ccccc3F)nc(C(N)=O)c21 (configuration not stated), Cc1ccc(CCNC(=O)c2cn(C)c3ccc(S(=O)(=O)N(C)C4CCCCC4)cc3c2=O)cc1, CCn1c(CNC(=O)c2ccc(OC)cc2)nnc1SCC(=O)Nc1ccccc1, CCN1CCN(c2ncnc3c2cnn3-c2ccc(C)c(Cl)c2)CC1, CC(Oc1ccc(F)cc1)C(=O)Nc1nc(-c2ccc(F)cc2)ns1 (configuration not stated), COc1ccc(-c2nc3scc(CCNS(=O)(=O)c4ccccc4F)n3n2)cc1, COc1ccc(Cn2c(CNS(=O)(=O)c3ccc(C)c(C)c3)nc3cccnc32)cc1, COc1ccccc1-n1c(=O)c2c3c(sc2n(C)c1=O)CN(C(C)=O)CC3, Cc1ccc(-c2noc(CSc3nnc(Cc4ccccc4)n3-c3cccc(C)c3)n2)cc1, CC(C)c1ccc(NC(=O)c2cccc3c2C(=O)N(C2CCCCC2)C3)cc1, CCOC(=O)c1cc(NC(=O)c2ccc(C)cc2)c(=O)n2c1oc1ccc(Cl)cc12, Cn1nnc2c(NCc3ccccc3Cl)ncnc21, CCOC(=O)c1noc2ncnc(N3CCC(C)CC3)c12, Cc1cccc(N2CCN(C(=O)CCc3c(C)nc4ncnn4c3C)CC2)c1C, Cc1ccc(Cn2c(=O)n(CCCC(=O)NCc3ccccc3Cl)c(=O)c3ccccc32)cc1, COC(=O)c1cnc(N2CCN(c3ccccc3F)CC2)c2ccccc12

Activity change, negative = inhibition, inactive:
CCC1=Nc2cc(C(=O)NCC(C)c3ccccc3)ccc2Sc2ccc(C)cc21 (configuration not stated) 26.7%, COC(=O)c1ccc(NC(=O)CCc2c(C)nc3c(-c4ccccc4)c(C)nn3c2C)cc1 -2.11%, CCOC(=O)c1ccc(OCC2c3cc(OC)c(OC)cc3CCN2C(=O)c2ccc(S(=O)(=O)N3CCCC3)cc2)cc1 (configuration not stated) -1.08%, COc1ccc(-n2c(C)c(C(C)=O)c3cc(OC(=O)c4ccc(C)cc4)ccc32)cc1 -22.9%, COc1ccc(C)cc1S(=O)(=O)NCC(c1cccs1)S(=O)(=O)c1ccc(C)cc1 (configuration not stated) -2.55%, COc1ccc(-c2noc(-c3ccc(N4CCCC4)c([N+](=O)[O-])c3)n2)cc1 8.2%, CCn1nnc2cc(C(=O)Nc3cccc(Cl)c3C)ccc21 -2.51%, CCOC(=O)Cc1ccc(NC(=O)Nc2ccccc2OCc2cc(=O)n3ccccc3n2)cc1 -25%, O=C(NCc1ccc2c(c1)CCN2C(=O)c1ccccc1)Nc1cc(F)ccc1F -9.83%, CCN(CC)C(=O)c1sc2c(c1C)c(=O)n(Cc1ccccc1)c(=O)n2Cc1ccc(Cl)cc1 11.8%, CCc1cccc(-n2nnc(-c3nc(-c4ccccc4Cl)no3)c2N)c1 -8.33%, COc1ccc(Nc2nc3ccccc3c3nnc(C)n23)cc1Cl -5.51%, CCN(C(=O)CCn1cnc2onc(-c3ccc(F)cc3)c2c1=O)c1ccc(OC)cc1 3.5%, Cn1nnc2c(NCCc3ccccc3)ncnc21 22.6%, O=C(NCC(c1cccnc1)N1CCc2ccccc2C1)C(=O)Nc1ccc(Cl)cc1 (configuration not stated) 2.76%, Cc1ccc(NC(=O)CSc2cn(CC(=O)N3CCCCCC3)c3ccccc23)cc1 1.8%, CCSc1ncc(Cl)c(C(=O)Nc2c(C(=O)c3ccc(C)c(F)c3)oc3ccccc23)n1 -0.94%, COc1ccccc1NC(=O)c1c(NC(=O)c2ccco2)sc2c1CCC(C(C)(C)C)C2 (configuration not stated) 4.12%, CC(=O)c1cccc(NC(=O)c2c(N3CCCC3=O)c3cc(F)ccc3n2C)c1 -19.1%, CCOCCCNC(=O)C(c1ccc(C)cc1)N(Cc1cccs1)C(=O)c1ccc(NC(C)=O)cc1 (configuration not stated) -4.38%, Cc1ccc2c(c1)N(CC(=O)NCc1ccccc1Br)C(=O)c1cccnc1O2 0.0734%, CCCc1nc2ccccc2n2c(-c3ccc(C)cc3)c3c(=O)n(C)c(=O)n(C)c3c12 6.79%, COC(=O)c1ccc(NC(=O)c2cc(=O)c3ccc(C)cc3o2)cc1 -1.73%, Cc1ccc(N2CC(NC(=O)c3ccc(S(=O)(=O)N4CCCCC4)cc3)CC2=O)cc1 (configuration not stated) -3.22%, O=c1oc2ccc(Br)cc2cc1-c1csc(-c2ccccc2)n1 -6.01%, Cc1ccc(NC(=O)Cn2c(=O)n(CCc3ccccc3)c(=O)c3c4c(sc32)CCCC4)c(C)c1 7.69%, COc1ccc(N2CC(NC(=O)c3cc4ccccc4o3)CC2=O)cc1OC (configuration not stated) -14.5%, CCc1cccc(NS(=O)(=O)c2c(C)nc3sc(CC)nn3c2=O)c1 9.99%, COc1cc(/C=C(\C#N)C(=O)Nc2ccc(C)cc2)ccc1OCc1cc(=O)n2nc(C)sc2n1 19.1%, C=C1C[C@@]2(O)O[C@@]3(C[C@H]2C(C)C)[C@H](C)CC[C@H]13 2.38%, CN(C(=O)C1=CC(c2ccc3c(c2)OCO3)=NS(=O)(=O)N1C)c1ccccc1 -5.15%, Cc1nc2c(c(C)nn2-c2ccccc2)c(C)c1CCC(=O)NCCc1ccccc1 0.175%, O=C(CSc1nc2c(c(=O)[nH]1)CN(Cc1ccc3c(c1)OCO3)CC2)Nc1cccc(Cl)c1 -3.62%, CCCC(=O)Nc1nnc2n1CCS2 36%, Cc1cccc(Cn2cc3c(=O)n(CC(=O)Nc4ccc(C)c(F)c4)nc-3c3cc(F)ccc32)c1 6.88%, COc1ccc(CC(=O)NCc2nc3cccnc3n2Cc2ccc(C)cc2)cc1OC 20%, CCOc1ccc(Oc2nc(NC)nc(N3CCOCC3)n2)nn1 -16.8%, CC(C)c1cccc(C(C)C)c1NC1=NS(=O)(=O)c2ccccc21 -1.64%, COc1ccccc1NC(=O)NCCN1CCN(c2cccc(Cl)c2)CC1 6.15%, CCc1ccccc1NC(=O)c1cc(S(=O)(=O)N2CCCC2)cn1C 19.3%, COc1ccc(OC)c(NC(=O)c2c(NCc3cccs3)sc3c2CCCC3)c1 13.6%, Cc1ccc(NC(=O)C2CCN(c3nc4ccccc4[nH]3)CC2)c(C)c1 7.18%, O=C(c1ccc(CSc2nc3ccncc3n2Cc2cccc(F)c2)cc1)N1CCCCCC1 -3.11%, CCOc1ccccc1NC(=O)c1cc2c(=O)oc3ccccc3c2s1 -7.63%, O=C(Cn1c(-c2cccs2)cc2ccccc21)NCCc1ccc(Cl)cc1 -3.49%
